The record followed here is the supplement of paper PMC8728848.

This is one part of the list.

Test in all cases: glycan array binding signal (z-score within array); higher = stronger binding
Details in all cases: glycan notation: IUPAC condensed, linker removed

Experiment [1] deals with Neu5Gc(a2-8)Neu5Gc(a2-3)Gal(b1-4)GlcNAc(b1-3)Gal(b1-4)GlcNAc. A digest of the protocol:
(§1)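 From the Consortium for Functional Glycomics database, 3228 arrays were curated, keeping only those whose protein sequence was available. Binding is given as a within-array Z-score averaged across arrays sharing a protein sequence and across linkers. Negative Z-scores can be read as non-binding.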

Experiment [2] has as its target Neu5Gc(a2-8)Neu5Gc(a2-6)Gal(b1-4)GlcNAc. Put shortly:
as §1

The target of experiment [3] is Neu5Gc(b2-6)Gal(b1-4)GlcNAc. Put shortly: as §1

B1: CrataBL (Crataeva tapia), C0HJA4 (protein)
chain: AILTGVPYYILPSTSRAGFSPDNLRKNTSQLSCPLDLITQLRFPRRIGVPVIFTPQNSSLKVVPLSHNLNIHTCSDLWFCPESKIWTVKSSLTHGGSVVTTGGTFRSLGSWFRIERHGDSYKLVHCPRGSTPCRDVGIETVGGGGRRYLAPRDRPLAVRFTRASG
In the case of B1, the “glycan array binding signal (z-score)” value in experiment [1] was -0.375; in experiment [2] it was -0.193; in experiment [3], 0.152.
